According to the RNAGym collection of RNA variant scans (doi:10.1093/nar/gkz1192):
Read counts are not given, so values of variants with three or more changes are uncertain.

B1: CPEB3 Ribozyme (parent)
chain: UAACAGGGGGCCACAGCAGAAGCGUUCACGUCGCAGCCCCUGUCAGAUUCUGGUGAAUCUGCGAAUUCUGCUGUAUAUCUC

Variants of: B1
Test: self-cleavage, relative activity (ratio to wild type); higher = more cleavage; in vitro, sequencing
Procedure, shortened: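 For each CPEB3 ribozyme variant, relative activity is its cleaved/total read fraction divided by the unmutated ribozyme's. Barcoded error-prone PCR libraries were transcribed by T7 RNA polymerase (5 hours, 37°C) and held in DNase I for 15 min before an EDTA stop, with cleavage occurring throughout. Template-switching reverse transcription and Illumina sequencing were used to read the RNAs. A 5-read minimum applied, and results are the mean of three batches.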

Variant	self-cleavage
UAACAGGGGGCCACAGCAGAAGCGUUCACGUCGCAGCCCCUGACAGAUUCUGGUGAAUCUGCGGAAUCUGCAGUAUAUCUC	0.16
UAACAGGGGGCCACAGCAGAAGCGUUCACGUCGCAGCCCCUUUCAGAUUCUGGUGAAUCCGCGAAUUCUGCCGUAUACCUC	0.21
UAACAGGGGGCCACAGCAGAAGCGUUCACGUCGCAGCCCCCGUCAGAUUCUGGUGAAUCUGCGAAUUCAGCUGUAUGUCUC	0.81
UAACAGGGGGCCACAGCAGAAGCGUUCACGUCGCAGCCCCUGACAGGUUCUGAUGAAUCUGCGAAUUCUGCUGUAUAUCUC	1.2
UAACAGGGGGCCACAGCAGAAGCGUUCACGUCGCAGCCCCUUUCAGAUUCUGGUGAUUCUGCGAUUUCUGCCGUAUAUCUC	0.35
UAACAGGGGGCCACAGCAGAAGCGUUCACGUCGCAGCCCCCGUCAGAUUCUGGGGAAUCUGCGAUUUCUGCUGUAUAUCUC	0.11
UAACAGGGGGCCACAGCAGAAGCGUUCACGUCGCAGCCCCUAUCGGAUUCUGGUGAAUCUGCGAAUUCUGCUGCAUACCUC	0.09
UAACAGGGGGCCACAGCAGAAGCGUUCACGUCGCAGCCCCGGUCAGAUUCUGGUGAAUCUGCGAAUUCCGCUGCAUAUCUC	0.22
UAACAGGGGGCCACAGCAGAAGCGUUCACGUCGCAGCCCCUAUCGGAUCCUGGUGAAUCUGCGAAUUCUGCUGUAUAUCUC	0.14
UAACAGGGGGCCACAGCAGAAGCGUUCACGUCGCAGCCCCUAUCGGAUUCUGGUGAAGCUGUGAAUUCUGCUGUAUACCUC	0.11
UAACAGGGGGCCACAGCAGAAGCGUUCACGUCGCAGCCCCUGACAGAUUCUGGUGAGUCUGCGAAUUCUGCAGUAUAUCUC	0.66
UAACAGGGGGCCACAGCAGAAGCGUUCACGUCGCAGCCCCUGACAGAUUCUGGUGUAUCUGCGGAUUCUGCUGUAUAUCUC	0.56
UAACAGGGGGCCACAGCAGAAGCGUUCACGUCGCAGCCCCGGUCAGUUUCUGGUGAAUCCGCGAAUUCUGCAGUAUAUCUC	0.17
UAACAGGGGGCCACAGCAGAAGCGUUCACGUCGCAGCCCCCGUCAGAUUCUGGUGAACCUGCGGAUUCUGCUGUAUAUCUC	0.3
UAACAGGGGGCCACAGCAGAAGCGUUCACGUCGCAGCCCCCGUCAGAUUCUGGUGAACCUGCGUAUUCUGCUGUAUAUCUC	0.39
UAACAGGGGGCCACAGCAGAAGCGUUCACGUCGCAGCCCCUGACAGAUUCUGGUGAAUCUGAGAGUUCUGCUGUAUAUCAC	0.2
UAACAGGGGGCCACAGCAGAAGCGUUCACGUCGCAGCCCCCGUCAGAUUCUGGUGAAUCUGCGAAUUCCGCUGCAUAUCCC	0.49

Variant	self-cleavage
UAACAGGGGGCCACAGCAGAAGCGUUCACGUCGCAGCCCCCGUCAGAUUCUGGCGAAUCUGCGAAUUCUGCUGUAUCUCCC	0.49
UAACAGGGGGCCACAGCAGAAGCGUUCACGUCGCAGCCCCCGUCAGAUUCUGGCGAAUCUGCGAAUUCUGCUGUACAUCUC	1.07
UAACAGGGGGCCACAGCAGAAGCGUUCACGUCGCAGCCCCUGACGGAUUCUGGUGAUUCCGCGAAUUCUGCUGUAUAUCAC	1.18
UAACAGGGGGCCACAGCAGAAGCGUUCACGUCGCAGCCCCGGUCAGAUUCUGGUGAAUCUGCGAUUUCUGCUGUAUAUCUG	0.22
UAACAGGGGGCCACAGCAGAAGCGUUCACGUCGCAGCCCCUACCUGAUUCUGGUGAAUCUGCGAAUUCUGCUGUAUAUCUC	0.2
UAACAGGGGGCCACAGCAGAAGCGUUCACGUCGCAGCCCCUGACGGAUUCUGGUGAUUCUCCGAAUUCUGCUGUAUAUCUC	0.17
UAACAGGGGGCCACAGCAGAAGCGUUCACGUCGCAGCCCCGGUCUGAUUCUGGUGAACCCGCGAAUUCUGCUGUAUAUCUC	0.12
UAACAGGGGGCCACAGCAGAAGCGUUCACGUCGCAGCCCCUGACGGAUUCUGGUGAAUCUGCGAAUUCUGCAGUAUAUCUC	0.28
UAACAGGGGGCCACAGCAGAAGCGUUCACGUCGCAGCCCCUCUCAGAUACUGGUGAAUCUGCGAACUCUGCUGUAUAUCUC	0.16
UAACAGGGGGCCACAGCAGAAGCGUUCACGUCGCAGCCCCCGUCAGAUUCUGGCGAAUCUACGAAUUCUGCUGUAUAUCUC	0.42
UAACAGGGGGCCACAGCAGAAGCGUUCACGUCGCAGCCCCUGACAUAUUCUGGCGAAUCUGCGAAUUCUGCUGUAUAUCUC	0.55
UAACAGGGGGCCACAGCAGAAGCGUUCACGUCGCAGCCCCUGACAGACUCUGGUGAAUCUGCGACUUCUGCCGUAUAUCUC	0.08
UAACAGGGGGCCACAGCAGAAGCGUUCACGUCGCAGCCCCGGUCAGAUUCUGGUGAAUCCGCGAAUUCUGCUGUAUAACUC	0.1
UAACAGGGGGCCACAGCAGAAGCGUUCACGUCGCAGCCCCCGUCAGAUUCUGGUGAAUCGGCGAAUUCAGCUGUAUAUCUC	0.27
UAACAGGGGGCCACAGCAGAAGCGUUCACGUCGCAGCCCCUGACAGAUUCUGGUGAAUCUGCGGAUUCAGCUGUAUAUCUC	0.36
UAACAGGGGGCCACAGCAGAAGCGUUCACGUCGCAGCCCCUCUCAGAUUCUGGUGAACCUGCGAAUUCUGCUGGAUACCUC	0.25
UAACAGGGGGCCACAGCAGAAGCGUUCACGUCGCAGCCCCCGUCAGAUUCUGGUGAAUCUGCGAAUUCUGCAGUUUAUCUC	1.07
